The structures appear in SMILES notation. About 120 (0.75%) of roughly 16,000 compounds were called active. Another 4% or so got no clear call; they are omitted. Calls follow the shape of the dose curve; as a rule, active = well fitted inhibition curve with a large enough effect; inconclusive = small, poorly fitted or top-dose-only effect; inactive = no such curve, though single readings can be large or run the other way. This is one part of the list.

The target in this test is Rap guanine nucleotide exchange factor 3 (Homo sapiens) (UniProt O95398). Kind of test: Validation qHTS for antagonist of cAMP-regulated guanine nucleotide exchange factor 3 (EPAC1).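 Also: plate controls were DMSO for no effect and ATA control for full effect; nearly all actives have a fitted effect of over 75% in size.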 The settings on record: EPAC1 Rap1B-BODIPY-GDP exchange, fluorescence; series mostly up to 150 µM; activity change, negative = inhibition: at the top concentration. In a few lines: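 Nucleotide exchange followed as fluorescence loss when BODIPY-GDP leaves Rap1B (480 nm excitation, 540 nm emission), read at 5 min intervals over 30 min. Reaction: 100 nM EPAC1, 250 nM RAP1B-BODIPY-GDP, 50 uM GDP; ATA and DMSO define normalization.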
UniProt O95398, sequence (O95398 whole entry, looked up): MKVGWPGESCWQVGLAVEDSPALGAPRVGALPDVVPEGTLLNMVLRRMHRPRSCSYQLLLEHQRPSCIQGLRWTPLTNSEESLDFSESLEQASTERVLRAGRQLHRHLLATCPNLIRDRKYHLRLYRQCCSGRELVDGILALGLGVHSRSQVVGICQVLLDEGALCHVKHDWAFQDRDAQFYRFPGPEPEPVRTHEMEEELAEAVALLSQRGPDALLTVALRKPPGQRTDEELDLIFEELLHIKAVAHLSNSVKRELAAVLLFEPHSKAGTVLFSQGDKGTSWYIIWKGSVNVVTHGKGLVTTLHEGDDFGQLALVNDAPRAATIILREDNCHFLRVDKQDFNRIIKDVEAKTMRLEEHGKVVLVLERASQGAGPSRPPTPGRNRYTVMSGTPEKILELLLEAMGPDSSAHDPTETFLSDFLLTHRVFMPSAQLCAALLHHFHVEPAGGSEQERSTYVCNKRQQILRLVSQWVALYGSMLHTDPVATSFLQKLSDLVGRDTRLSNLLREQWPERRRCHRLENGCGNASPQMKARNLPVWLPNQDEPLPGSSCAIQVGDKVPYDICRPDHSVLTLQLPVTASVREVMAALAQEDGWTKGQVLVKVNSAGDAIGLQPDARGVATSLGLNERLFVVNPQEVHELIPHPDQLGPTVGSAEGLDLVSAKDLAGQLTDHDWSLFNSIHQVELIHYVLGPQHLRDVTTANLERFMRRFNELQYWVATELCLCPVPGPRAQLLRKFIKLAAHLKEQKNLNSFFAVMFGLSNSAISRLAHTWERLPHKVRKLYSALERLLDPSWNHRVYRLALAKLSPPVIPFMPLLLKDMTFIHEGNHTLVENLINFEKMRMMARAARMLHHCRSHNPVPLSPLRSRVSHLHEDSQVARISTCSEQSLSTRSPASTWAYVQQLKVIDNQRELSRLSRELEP
Regarding `Cc1cc(C)n(-c2cccc(C(=O)NCC3Cc4cccc(-c5ccccn5)c4O3)c2)n1` (stereo not drawn), the “activity change, negative = inhibition” value was inactive: -18.2%. On to `Nc1nc2c(ncn2[C@@H]2O[C@H](COP(=O)(O)OP(=O)(O)O)[C@@H](O)[C@H]2O)c(=O)[nH]1`, for which the “activity change, negative = inhibition” value is inactive: -0.587%.

As to `CN(C)C(=O)c1ccc(-c2nc(NCc3cccs3)c3ccccc3n2)cc1`, the “activity change, negative = inhibition” value was inactive: 17.3%. Turning to `COc1ccc2c(c1OC)OCC(c1ccc(OC)c(OC)c1OC)C2` (stereo not drawn), the “activity change, negative = inhibition” value was inactive: 8.73%. As for `O=C(CN1Cc2ccccc2OC(c2ccccc2F)C1)NC(c1ccccn1)C(F)(F)F` (stereo not drawn), the figure is inactive: -16.7%; as for `Cc1ccc2c(c1)CN(CCNC(=O)c1ccc3nc(C)[nH]c3c1)CC(C)O2` (stereo not drawn), inactive: 1.39%. As for `CC(=O)Oc1c(-c2ccccc2)oc2c(CC=C(C)C)c3c(c(OC(C)=O)c2c1=O)C=CC(C)(C)O3`, the figure is inactive: 6.65%.

`Cc1cnc(CNc2ccnc(-c3ccccc3CN(C)C)n2)cn1`: the “activity change, negative = inhibition” value is inactive: 9.74%. As for `CC(N)(C(=O)O)c1ccc(P(=O)(O)O)cc1` (stereo not drawn), the figure is inactive: -8.59%; as for `NCC1CCC(C(=O)O)CC1` (stereo not drawn), “inactive”; as for `CC(C)(C)n1nc(-c2ccc(Cl)cc2)c2c(N)ncnc21`, inactive: -3.11%. As for `COC(=O)[C@@H](Cc1ccccc1)N(Cc1ccccc1)S(=O)(=O)N(Cc1ccccc1)[C@H](Cc1ccccc1)C(=O)OC`, the figure is inactive: 11.6%; as for `OC[C@@H](O)C(O)[C@H](O)CO`, inactive: 10.2%.

With `Cc1ccc(/C(=C\CN2CCCC2)c2cccc(/C=C/C(=O)O)n2)cc1`, the “activity change, negative = inhibition” value is inactive: 27.9%. As for `Cn1c(O)c(N=NC(N)=S)c2ccccc21`, the figure is inactive: 14.4%. With `Cc1ccccc1-c1cccc(CN2CCc3nnc(C(C)NC(=O)c4cccnc4)n3CC2)c1` (stereo not drawn), the “activity change, negative = inhibition” value was inactive: 13.4%. With `Cc1ccccc1-c1cncnc1NCCN1CCOCC1` the figure was inactive: 13.7%; with `COc1ccc(/C=N/NC(=O)c2ccncc2)c(C(=O)O)c1OC`, inactive: 12.8%. For `COc1ccc(/C=C/c2ccccn2)cc1`, the “activity change, negative = inhibition” value is inactive: 13%. `Cc1ccccc1-c1nc(NCc2cccnc2)c2ccccc2n1`: the “activity change, negative = inhibition” value is inactive: 14.3%.

With `O=C(c1cc(-c2ccccc2)on1)N1CCOc2ccc(CN3CCOCC3)cc2C1`, the “activity change, negative = inhibition” value is inactive: 13.4%. `Cc1cccc([C@@H]2CN(C)CCc3c2cc(O)c(O)c3Cl)c1`: the “activity change, negative = inhibition” value was inactive: 7.96%. With `N#CCCn1c(=O)c(-c2cccs2)nc2cnc(Oc3cccc(Cl)c3)nc21`, the “activity change, negative = inhibition” value was inactive: 0.237%. With `CC(C)NC(=O)c1cn([C@H]2CC[C@@H](NC(=O)/C=C/c3cccs3)CC2)nn1` the figure was inactive: -4.66%; with `c1nc(NC2CCNCC2)c2cc(-c3ccc4c(c3)OCO4)ccc2n1`, inactive: 22.3%; with `O=C(Nc1ccc(Cl)c(C(F)(F)F)c1)[C@@H]1CC=C[C@@H]2CCN(Cc3ccc(Cl)c(Cl)c3)C(=O)[C@@H]21`, inactive: -0.47%. As for `COc1cc2ncc(-c3ccccc3)nc2cc1OC`, the entry is “inactive”; as for `Cc1cn2cc(CNC(=O)CN3Cc4ccccc4OC(c4ccccc4F)C3)nc2s1` (stereo not drawn), inactive: 0.356%.

Values taken from PubChem BioAssay AID1645882 (National Center for Advancing Translational Sciences (NCATS), 2021).
